Out of some 94,000 compounds screened, about 4,000 (4.3%) were called active. This list was built around the results that the source calls inconclusive (neither active nor inactive); the mix of calls is not that of the screen. Calls follow the shape of the dose curve; as a rule, active = well fitted inhibition curve with a large enough effect; inconclusive = small, poorly fitted or top-dose-only effect; inactive = no such curve, though single readings can be large or run the other way. Potencies of inconclusive entries are doubtful fits and often do not repeat.
Assay: Cytotoxic Profiling in NIH 3T3 Cell Line of Diverse Libraries Using Quantitative High-Throughput Screening; also: nearly all actives have a fitted effect of over 55% in size
Details: NIH 3T3 viability, CellTiter-Glo ATP luminescence, 48-72 h; activity change, negative = cytotoxicity: at 96.7 µM (top of the series) unless noted; series mostly up to 96.7 µM
Summary of the method: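 Viability of NIH 3T3 cells after 48 or 72 hr compound treatment at 37 °C was assessed by CellTiter-Glo, with luminescence imaged following a 10 min room-temperature step.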
% is scaled to controls: 0 for no effect and ±100 for the full control effect; potency is read from the fitted curve at half-maximal effect; tags tell the direction and shape of the fitted curve.

| SMILES | activity change, negative = cytotoxicity | Potency | outcome |
| --- | --- | --- | --- |
| O=C(NCCN1C(=O)C2(CCCCC2)C1c1ccccc1)C1CC=CC1 (stereo not given) | inactive: -24.5% |  |  |
| O=C(C1CCCN(C2CCN(c3nnnn3-c3ccccc3)CC2)C1)N1CCCC1 (stereo not given) | inactive: 1.33% |  |  |
| Cn1ncc2c(C(=O)NCCc3ccc(Cl)cc3)cc(-c3ccc([S+](C)(=O)[O-])cc3)nc21 |  | inconclusive: 50.1 µM [inhibitor, partial curve, poor fit] |  |
| COc1ccc(-c2nccc3c(=O)cc(-c4cccnc4)oc23)cc1OC |  | active: 22.4 µM |  |
| CC(C)NC(=O)CCC[C@@H]1[C@H]2CCCN3CCC[C@@H](CN1C)[C@@H]23 |  |  | inactive |
| CS(=O)(=O)N1CCN(c2ccc3nnc(C4CC4)n3n2)CC1 | inactive: -12.1% [at 138 µM] |  |  |
| O=c1cc(N2CCOCC2)oc2c(-c3cccnc3)nccc12 |  | active: 79.4 µM |  |
| CCCCOc1ccc(-c2nc(C3CC(=O)N(c4ccc(OC)cc4)C3)no2)cc1 (stereo not given) | inactive: -7.28% |  |  |
| O=C(Nc1ccc(F)c(Cl)c1)N1CCCC(Cn2c(C3CC3)nc3cccnc32)C1 (stereo not given) |  | inconclusive: 50.1 µM [inhibitor, partial curve, poor fit] |  |
| C=CCNC(=O)[C@@H]1C[C@@H](O)CN1C1CCN(C(=O)c2cccc(OC)c2)CC1 |  |  | inactive |
| CC(C)CCN1CCc2nc(C(C)C)nc(-c3ccc(O)cc3)c2C1 | inactive: -26.3% [at 138 µM] |  |  |
| Cc1cccc(N2Cc3c(NCCCc4ccccc4)ncnc3N(C)CC2=O)c1 |  | active: 44.7 µM |  |
| COc1ccc(CN2CCc3nc(C(=O)Nc4ccc(Cl)cc4)oc3CC2)cn1 |  | inconclusive: 50.1 µM [inhibitor, partial curve, poor fit] |  |
| Fc1ccc(-c2[nH]ncc2CN(Cc2cccnc2)Cc2cccnc2)cc1 |  | inconclusive: 50.1 µM [inhibitor, partial curve, poor fit] |  |
| COc1ccccc1Cn1c(=O)c(C(=O)NCc2ccc3c(c2)OCO3)nc2cccnc21 |  | inconclusive: 50.1 µM [inhibitor, partial curve, poor fit] |  |
| O=C(NCCc1ccccn1)C1CCc2sc(C(=O)N3CCCCC3)cc2C1 (stereo not given) | inactive: -23.4% |  |  |
| CC(C)N1C(=O)CO[C@H]2CCN(CCCc3ccccc3)CC[C@@H]21 |  | inconclusive: 56.2 µM [inhibitor, partial curve, poor fit] |  |
| COc1ncc(-c2ccnc(-c3nnc(C)n3CCN3CCOCC3)c2)cn1 |  | inconclusive: 100 µM [inhibitor, partial curve, poor fit] |  |
| CCCNC(=O)C1CC(c2ccccc2F)=NO1 (stereo not given) |  |  | inactive |
| Cc1noc(C2CCCCN2C(=O)c2ccc(-c3ccccc3Cl)o2)n1 (stereo not given) |  | inconclusive: 79.4 µM [inhibitor, partial curve, poor fit] |  |
| O=C(Cc1c[nH]c2ncc(-c3ccsc3)cc12)NCc1cccnc1 |  | inconclusive: 39.8 µM [inhibitor, partial curve, poor fit] |  |
| COc1ccc(CN2CC(COc3ccccc3)C3(C2)CN(c2ccccc2)C3)cc1O (stereo not given) |  | inconclusive: 22.4 µM [inhibitor, full curve, poor fit] |  |
| O=C(COc1ccccc1)N1CCC(Oc2ncccc2C(=O)N2CCCCC2)C1 (stereo not given) |  | inconclusive: 70.8 µM [inhibitor, single point] |  |

| SMILES | activity change, negative = cytotoxicity | Potency | outcome |
| --- | --- | --- | --- |
| Cc1nc(-c2cn(C3CCCN(C(=O)c4cccc(C#N)c4)C3)nn2)no1 (stereo not given) | inactive: -25% |  |  |
| CCOC(=O)C1=C(C)N=C2SC=C(CC(=O)N3CCOCC3)N2C1c1cccc(Cl)c1 (stereo not given) | inactive: -20.7% |  |  |
| CCOc1ccccc1NC(=O)N1CCC2(CC1)CC(Cc1nc(-c3ccncc3)no1)CCO2 (stereo not given) |  | inconclusive: 28.2 µM [inhibitor, partial curve, poor fit] |  |
| CCn1nccc1C(=O)N1CCCC(n2cc(-c3nc(-c4ccccc4)no3)nn2)C1 (stereo not given) | inactive: -28.7% |  |  |
| O=C(Cc1cccc(Cl)c1)N1CCC(C(=O)N2CCC(c3ccccc3)CC2)CC1 |  | inconclusive: 50.1 µM [inhibitor, partial curve, poor fit] |  |
| Cc1cc(C)cc(-c2ccc(CN3CCCC3C(=O)N3CCN(Cc4ccccc4)CC3)cc2)c1 (stereo not given) |  | active: 12.6 µM |  |
| CC(C)c1noc(-c2cn(C3CCCN(C(=O)c4ccc(F)c(Cl)c4)C3)nn2)n1 (stereo not given) |  | inconclusive: 25.1 µM [inhibitor, full curve, poor fit] |  |
| O=C1NCc2ccccc2CC12CCCN2Cc1ccc2ccccc2n1 (stereo not given) |  | inconclusive: 44.7 µM [inhibitor, partial curve, poor fit] |  |
| COc1ccc(-c2nn(-c3ccccc3C)cc2CN2CCCN(C)CC2)cc1F |  | inconclusive: 79.4 µM [inhibitor, partial curve, poor fit] |  |
| Cc1nc2c(s1)C[C@]1(C)CCC([C@H](C)C(=O)N3CCOCC3)[C@H](O)[C@H]1[C@@H]2C (stereo not given in full) | inactive: -18.2% [at 138 µM] |  |  |
| COc1ccc(C(=O)Nc2ccc([C@H]3OCC(=O)N(C)[C@@H]3CO)cc2)cc1 | inactive: -19.2% [at 138 µM] |  |  |
| CC(C)NC(=O)C1CCCN1C(=O)c1cccc(-c2ccccn2)c1 (stereo not given) | inactive: -5.98% |  |  |
| O=C(O)COc1ccc(-c2nccc3c2C(=O)N(Cc2cccc(C(F)(F)F)c2)CC(COc2cccnc2)O3)cc1 (stereo not given) |  | inconclusive: 50.1 µM [inhibitor, single point] |  |
| O=C(c1ccccc1Cl)N1CCC2(CC1)CCN(Cc1cccs1)c1ccccc1O2 |  | inconclusive: 44.7 µM [inhibitor, partial curve, poor fit] |  |
| CCCCCNC(=O)CNC(=O)c1ccc(-c2cnc3ccccc3c2)cc1 |  | inconclusive: 50.1 µM [inhibitor, partial curve, poor fit] |  |
| CCc1ccc(C(=O)NC2CCN(c3cnn(CC)c(=O)c3)CC2)cc1 | inactive: -15.7% |  |  |
| COc1ccc(C2Cn3cnc(-c4nc(-c5ccc(OC)cc5OC)no4)c3CO2)cc1 (stereo not given) |  | active: 20 µM |  |
| COCCOCc1nc(C2CCN(C(=O)Nc3ccc(OC)c(F)c3)CC2)no1 | inactive: -14.8% |  |  |
| Fc1cccc(-c2cc3c(cn2)CN(Cc2ccncc2)CCN3)c1 | inactive: -23.3% [at 138 µM] |  |  |
| COc1coc(C(=O)N2CCOCC2CC(=O)NC2CCCC2)cc1=O (stereo not given) | inactive: -16.2% |  |  |
| CN(Cc1ccc(F)cc1)C(=O)Cc1ccc(F)cc1 |  | inconclusive: 56.2 µM [inhibitor, partial curve, poor fit] |  |
| CN(C)C(=O)NCCNC(=O)c1ccc(-c2cccc(C(F)(F)F)c2)cc1 |  | inconclusive: 35.5 µM [inhibitor, partial curve] |  |
